# The supplement of paper PMC3334620
# Whole data set: some 33,000 sequences, median “E-score (-0.5 to 0.5)” near -0.054, cut for the highest 2% near 0.35. The list shows a part of the results.
# Biological target: T1, Stb5 (UniProt P38699)
# T1 sequence: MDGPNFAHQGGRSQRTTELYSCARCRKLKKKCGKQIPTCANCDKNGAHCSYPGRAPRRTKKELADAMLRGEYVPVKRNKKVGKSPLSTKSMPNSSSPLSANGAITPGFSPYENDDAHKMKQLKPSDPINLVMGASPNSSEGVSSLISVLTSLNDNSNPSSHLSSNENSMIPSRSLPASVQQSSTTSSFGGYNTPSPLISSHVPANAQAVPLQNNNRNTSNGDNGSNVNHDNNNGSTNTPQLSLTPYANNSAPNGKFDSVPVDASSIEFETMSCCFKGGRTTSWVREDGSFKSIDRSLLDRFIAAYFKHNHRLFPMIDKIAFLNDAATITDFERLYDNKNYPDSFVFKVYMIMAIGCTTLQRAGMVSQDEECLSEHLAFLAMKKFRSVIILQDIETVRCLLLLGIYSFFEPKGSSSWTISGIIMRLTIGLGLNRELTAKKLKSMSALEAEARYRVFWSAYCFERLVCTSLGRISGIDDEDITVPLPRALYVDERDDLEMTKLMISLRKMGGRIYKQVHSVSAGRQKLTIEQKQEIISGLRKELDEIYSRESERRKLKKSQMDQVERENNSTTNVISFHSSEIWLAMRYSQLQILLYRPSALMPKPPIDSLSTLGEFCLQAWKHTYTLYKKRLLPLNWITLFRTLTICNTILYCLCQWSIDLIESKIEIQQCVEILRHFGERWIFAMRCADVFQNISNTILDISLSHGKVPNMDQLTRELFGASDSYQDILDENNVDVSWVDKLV
# Assay: PBM E-score (8-mer binding enrichment) (E-score (-0.5 to 0.5)); higher = stronger / more preferred TF binding; most listed sequences are background and not binding sites
# Conditions: protein concentration: 200 nM; construct: GST-full length
# Procedure: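 Universal 'all 10-mer' protein binding microarrays (Agilent AMADID 015681) probed with GST-tagged S. cerevisiae TFs (full-length or DBD) made by in vitro transcription/translation (PURExpress), about 100-200 nM. Bound TF was detected with fluorescent anti-GST. Each ungapped 8-mer (which stands for itself and its reverse complement) is scored by the PBM enrichment score (E-score), a modified Wilcoxon-Mann-Whitney statistic from -0.5 to +0.5, computed with the Universal PBM Analysis Suite. Scale: above 0.35 generally sequence-specific binding.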
row,Sequence,PBM E-score
1,CTGCCGTA,-0.0524
2,GCACCATA,-0.081
3,CTTTTGTC,0.125
4,TATCACAA,-0.0631
5,CCCTTCAC,-0.228
6,GGTTCGTA,-0.00108
7,CGCTCCAC,0.0595
8,CATTTTAG,0.189
9,ACAGCCTC,-0.182
10,TCTTTACA,-0.117
11,ATGGCATG,0.0369
12,AGCTAAAA,-0.139
13,TAGAGCAA,-0.202
14,ATTCGAAG,-0.21
15,GCAAAGCA,-0.209
16,GCTCGGCC,0.105
17,AGGGCTCA,-0.23
18,ACAGTACT,-0.197
19,CTCCCGTC,0.148
20,AATCGGGA,0.182
21,CTATCGAC,-0.212
22,CTGTACGC,-0.0128

row,Sequence,PBM E-score
1,GCCGAAAA,0.168
2,AGTCAACT,-0.23
3,CTAGTGCA,-0.0477
4,CAATCGGC,0.184
5,ACAAATTC,0.0583
6,GCCAAACA,-0.0149
7,TGTGCCAA,-0.147
8,GCCGCACC,0.184
9,CCTGACAG,-0.193
10,CCAAGCTC,-0.0641
11,CACAATAA,-0.2
12,CAGTATTC,-0.0905
13,CTACGTAA,0.0153
14,ATGCCTGC,-0.0616
15,CATACAGA,-0.155
16,ATGGAGGC,0.0494
17,AAGTTCGA,-0.0284
18,GCCGTCAA,0.174
19,CCTGATCC,-0.125
20,CGAGCTTA,-0.0828
21,AAGCTTGT,0.0522
22,CTTCTGCC,-0.0456

row,Sequence,PBM E-score
1,GTTTGGCA,0.0166
2,AAGGTTTG,-0.0853
3,AGCGACAA,-0.163
4,TATGGCAA,-0.175
5,CTGGAGCA,-0.295
6,GACGGCTC,0.0639
7,CCTATCTC,0.00264
8,AAATACCC,0.279
9,CCAATCTC,0.0245
10,ACCTAACC,0.0301
11,ATGGTATG,-0.0521
12,GTATCTTA,0.104
13,CCAAATAA,-0.0406
14,ACATGACA,-0.122
15,AAATCAAG,-0.107
16,ACCGCTTC,0.318
17,CCAGGTGA,-0.289
18,AGGGGGAC,-0.248
19,GAGACGAA,-0.175
20,CGTGTTCC,0.0976
21,CGAGACCC,0.079
22,CTTCGTTC,-0.327

row,Sequence,PBM E-score
1,GCGTCTCC,0.0885
2,ATAATGAT,-0.192
3,CTTTCTCA,-0.0284
4,GAAAAAAC,0.118
5,AGATGGAG,-0.228
6,CTTGATGC,-0.00685
7,AGGTGCCA,-0.0687
8,CACCTGGC,-0.239
9,GAGTAGGC,0.0237
10,ATACGGTA,0.201
11,ATACCACA,-0.206
12,GCGGTAGC,0.159
13,TCGGCAGA,0.149
14,ACCCAACC,-0.182
15,AAGAACTT,-0.103
16,GTCCCTCA,-0.0746
17,CGGTCTCA,0.376
18,GTCAAGCA,0.0133
19,AGTTAAAT,0.0541
20,ATTCAACC,-0.113
